The whole screen tested about 150,000 compounds, of which about 180 (0.12%) were called active. This list was built around the results that the source calls inconclusive (neither active nor inactive); the mix of calls is not that of the screen. Calls follow the shape of the dose curve; as a rule, active = well fitted cell-killing curve with a large enough effect; inconclusive = small, poorly fitted or top-dose-only effect, or effect the other way; inactive = flat fitted curve, though single readings scatter. A potency beside an inconclusive call is a rough fit, not a confirmed value.
Assay: GF-AFC viability counterscreen for inhibitors of alpha-synuclein gene (SNCA) expression; also: nearly all actives have a fitted effect of over 30% in size;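 as to activity change, negative = cytotoxicity: 0% = DMSO-treated cells and -100% = medium-only wells without cells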
Settings: HEK-293-SNCA-luc viability, GF-AFC fluorescence, 24 h; activity change, negative = cytotoxicity: at 57.1 µM (top of the series) unless noted
How it was run: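 HEK-293-SNCA-luc cells (1500/well) plated 24 h, then exposed 24 h to a dilution series; GF-AFC added 30 min at 37C, fluorescence 405/540 nm; normalised to medium-only and DMSO wells, Hill fit.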
Potency is read from the fitted curve at half-maximal effect; tags tell the direction and shape of the fitted curve.

| SMILES | Potency | activity change, negative = cytotoxicity |
| --- | --- | --- |
| COc1cccc(CCNC(=O)c2ccc(Cn3c(SCc4ccccc4)nc4cccnc43)cc2)c1 | inconclusive: 15.8 µM [cytotoxic, partial curve, poor fit] |  |
| COc1ccc(N2CCN(c3cc(C4CC(N)C4)nc(N)n3)CC2(C)C)cc1 (configuration not stated) | inconclusive: 17.8 µM [cytotoxic, single point] |  |
| Cc1noc(C)c1C(=O)N1CCC2(CC1)CN([S+](=O)([O-])c1ccccc1)CCO2 |  | inactive: 1.38% |
| COc1ccc(F)cc1-c1cc(NC(=O)[C@@H]2CCCNC2)ncc1Cl | inconclusive: 0.597 µM [cytotoxic, full curve, poor fit] |  |
| O=C(OC1C=C(CO)C2C(OC3OC(CO)C(O)C(O)C3O)OC=CC12O)c1ccc(O)cc1 (configuration not stated) | inconclusive: 18.4 µM [cytotoxic, partial curve, poor fit] |  |
| O=C(Nc1cccc(C(F)(F)F)c1)c1cnc2c(c1)N(Cc1ccccc1)CCC2 |  | inactive: -16.1% [at 87.6 µM] |
| CC(C)c1noc(-c2cn(C3CCN(C(=O)c4ccc(Cl)s4)C3)nn2)n1 (configuration not stated) |  | inactive: -3.78% |
| CN(C)c1ccc(C(=O)Nc2sc(Nc3ccccc3)nc2C(N)=O)cc1 | inconclusive: 0.282 µM [rising, full curve] |  |
| Cc1cnc(C2CCN(S(C)(=O)=O)C2)n1Cc1ccc(F)cc1 (configuration not stated) | inconclusive: 3.16 µM [cytotoxic, single point] |  |
| Cc1cc(Cl)ccc1S(=O)(=O)N(C)CC1CCOCC1 |  | inactive: -0.698% |
| CC1=C[C@@H](CN2CCN(c3ccccn3)CC2)[C@H](C(C)C)C[C@H]1Cc1nnc(-c2ccc(C)cc2)o1 | inconclusive: 39.8 µM [cytotoxic, single point] |  |
| O=C(NCC(F)(F)F)c1ccc2nnc(-c3cc(F)ccc3F)n2c1 |  | inactive: -4.96% |
| CC1(COc2cccnc2)COc2ccc(C(=O)Nc3cccc(Cl)c3)cc2N1 (configuration not stated) | inconclusive: 35.5 µM [cytotoxic, single point] |  |
| COc1cccc(-c2nnc3n(Cc4ccc(C)cc4)c(=O)c4ccccc4n23)c1O | inconclusive: 28.2 µM [cytotoxic, single point] |  |
| O=C([C@@H]1C[C@H](F)CN1C(=O)c1cccc(F)c1)N1CCOCC1 | inconclusive: 39.8 µM [rising, single point] |  |
| Cc1cc(-c2cn(C)c(=O)n3cc(COc4ccccc4)nc23)ccn1 | inconclusive: 28.2 µM [cytotoxic, single point] |  |
| O=C(NC1CCN(c2nccc(Nc3ccccc3F)n2)CC1)c1ccc(F)cc1 |  | inactive: -20.1% [at 12.5 µM] |
| O=C(c1n[nH]c2c1CCCC2)N1CCC(n2cc(-c3nc(-c4ccccc4)no3)nn2)CC1 | inconclusive: 39.8 µM [cytotoxic, single point] |  |
| Cn1cccc1C(=O)N1CC(Oc2cccc(-c3nc(-c4ccccc4)no3)c2)C1 |  | inactive: -18% |
| Cc1oc2c(c1C(=O)N1CCN(c3ccccc3)CC1)CN(Cc1ccc(F)cc1)CC2 |  | inactive: -0.651% |
| O=C(CN1C(=O)NC2(CCOCC2)C1=O)Nc1ccccc1 | inconclusive: 17.8 µM [rising, partial curve, poor fit] |  |

| SMILES | Potency | activity change, negative = cytotoxicity |
| --- | --- | --- |
| CCNc1ncc2nc(-c3cn(C)c4ccccc34)c(=O)n(C[C@H]3CCCO3)c2n1 | inconclusive: 7.94 µM [rising, partial curve, poor fit] |  |
| CCOC(=O)c1cc(-c2ccccc2)n(CCC(=O)Nc2ccc(C(F)(F)F)cc2)c1C | inconclusive: 39.8 µM [cytotoxic, single point] |  |
| Cc1c(NC(=O)Cc2ccc(F)cc2)cccc1-c1nc2cccnc2s1 | inconclusive: 1 µM [cytotoxic, full curve, poor fit] |  |
| Cc1ccc(C(=O)N2CCCC2C(=O)N2CCC(N3Cc4ccccc4C3=O)CC2)cc1 (configuration not stated) | inconclusive: 11.2 µM [cytotoxic, partial curve] |  |
| Cc1cc(C(=O)Nc2cc(Nc3ccc4c(/C=C/c5ccccn5)n[nH]c4c3)ccc2F)n(C)n1 | inconclusive: 29.9 µM [cytotoxic, single point] |  |
| COCCNC(=O)N[C@@H]1CN(c2ncccn2)C[C@H]1CN(C)C |  | inactive: 11.4% |
| COc1ccccc1NC(=O)Cn1cnc2c(nc3n2CCCCC3)c1=O | inconclusive: 20 µM [cytotoxic, partial curve, poor fit] |  |
| COc1ccc(Nc2ccnc(N3CCC(C(=O)N4CCN(Cc5ccccc5)CC4)CC3)n2)cc1 |  | inactive: -1.25% [at 12.5 µM] |
| COC(=O)[C@@H]1Cc2c([nH]c3ccccc23)[C@H]2C[C@@H](NCCCn3ccnc3)C[C@@H](c3ccccc3)N21 | inconclusive: 35.5 µM [cytotoxic, single point] |  |
| Cc1ccc(NC(=O)N2C[C@@H](Oc3cccnc3)C[C@H]2C(=O)N2CCOCC2)cc1C | inconclusive: 4.47 µM [cytotoxic, full curve] |  |
| COc1ccc(C(=O)NC[C@@H]2C=C(C)[C@H](CC(=O)N3CCOCC3)C[C@H]2C(C)C)cc1 | inconclusive: 11.2 µM [cytotoxic, partial curve, poor fit] |  |
| Cc1ccc(S(=O)(=O)NCCc2sc3nc(-c4ccccc4)nn3c2C)cc1C | inconclusive: 20 µM [cytotoxic, single point] |  |
| Cc1nnc(-c2cc(C(=O)NC3CCOCC3)ccn2)n1CCc1ccccc1 |  | inactive: 11.6% [at 87.6 µM] |
| CO[C@@H](C(=O)N1Cc2[nH]nc(NC(=O)c3ccc(N4CCN(C)CC4)cc3)c2C1)c1ccccc1 | inconclusive: 1.92 µM [cytotoxic, full curve, poor fit] |  |
| CNC(=O)[C@@H]1CN(C(=O)c2cc(F)cc(F)c2)C[C@H]1COC | inconclusive: 39.8 µM [cytotoxic, single point] |  |
| CC1(CCCCN2CCOCC2)COc2ccc(C(=O)NCc3ccccc3)cc2N1 (configuration not stated) |  | inactive: 9.93% [at 87.6 µM] |
| C[C@@H](O[C@H]1OCCN(Cc2n[nH]nc2CN(C)C)[C@H]1c1ccc(F)cc1)c1cc(C(F)(F)F)cc(C(F)(F)F)c1 | inconclusive: 2.38 µM [cytotoxic, partial curve, poor fit] |  |
| COC(=O)[C@@H]1Cc2ncn(Cc3ccc(Cl)cc3)c2CN1S(=O)(=O)Cc1ccccc1 | inconclusive: 12.6 µM [cytotoxic, partial curve, poor fit] |  |
| CC1=C(C(=O)Nc2cc(C)ccc2C)C2(CCCCCC2)OC1=O | inconclusive: 1.12 µM [rising, full curve, poor fit] |  |
| CN(Cc1ccc(F)cc1)c1ccc2ncc(Nc3ccc(CCO)cc3)n2n1 |  | inactive: -16.2% [at 87.6 µM] |
| CCN1C(C(=O)c2ccccc2)=C(OC(=O)COc2ccccc2)c2ccccc2S1(=O)=O | inconclusive: 39.8 µM [cytotoxic, single point] |  |

| SMILES | Potency | activity change, negative = cytotoxicity |
| --- | --- | --- |
| CCOC(=O)c1ccccc1Nc1cc(C)nc2nc(-c3ccco3)nn12 | inconclusive: 25.1 µM [cytotoxic, single point] |  |
| COCCN(C)C[C@@H]1CN(c2cc(C)c3ccc(SC)cc3n2)C[C@@H]1CO | inconclusive: 2.51 µM [cytotoxic, full curve, poor fit] |  |
| CC(C)C[C@@H]1N[C@H](C(=O)NCC2CC2)Cc2cn(Cc3cccnc3)c3cccc1c23 | inconclusive: 31.6 µM [cytotoxic, partial curve] |  |
| COc1ccc2nc3n(c2c1)[C@@H](CNCc1ccccc1)COC3 |  | inactive: -13.2% [at 87.6 µM] |
| CC(=O)c1cc(-c2ccccc2)n(CCC(=O)Nc2ccc(C(C)C)cc2)c1C | inconclusive: 39.8 µM [cytotoxic, single point] |  |
| CC(C)CN(C)C(=O)c1cc(-c2cnn(C(C)C)c2)nc2cc(F)ccc12 | inconclusive: 1.41 µM [cytotoxic, full curve, poor fit] |  |
| COc1ccc(-c2cc(N3CCN(C(=O)c4c[nH]c5ccccc45)CC3)n[nH]2)cc1 |  | inactive: -9.34% |
| COC[C@@H]1CN(Cc2ccc(OC)cc2OC)C[C@H]1C(=O)NC1CC1 | inconclusive: 15.8 µM [rising, partial curve] |  |
| CCC(C)NC(=O)N1CCc2ccc(S(=O)(=O)Nc3nn[nH]n3)cc2C1 (configuration not stated) | inconclusive: 2.51 µM [rising, full curve, poor fit] |  |
| Cc1cccc(OCC(=O)N2CCC(Cc3nc(-c4cnccn4)no3)CC2)c1 |  | inactive: -4.61% |
| COc1ccc(Br)cc1[C@@H]1Nc2ccc(C(=O)O)cc2[C@@H]2C=CC[C@@H]21 |  | inactive: -5.04% |
| CCCCN(CCC(=O)NCCc1ccccc1)C(=O)c1cc(C)oc1C | inconclusive: 35.5 µM [cytotoxic, single point] |  |
| COc1ccc(-c2cc(C(=O)NCc3ccccc3)c3cnn(C)c3n2)cc1 |  | inactive: -2.25% |
| COCC(=O)NC1CCN(c2nccc(Nc3ccc(OC)cc3)n2)CC1 | inconclusive: 3.98 µM [cytotoxic, single point] |  |
| CCCCc1ccc(NC(=O)c2ccc3c(c2)CCN3S(=O)(=O)CC)cc1 |  | inactive: 5.75% |
| COc1ccc(C2C=C(c3ccc(Cl)cc3)Nc3nc(-c4ccc(Cl)cc4)nn32)cc1 (configuration not stated) | inconclusive: 1.26 µM [rising, full curve, poor fit] |  |
| O=C(CSc1n[nH]c(-c2ccc(F)cc2)n1)NCc1ccccc1Cl | inconclusive: 15.8 µM [cytotoxic, partial curve] |  |
| COc1ccc([C@H]2C[C@@H](O)[C@@H](O)[C@@H]2NCc2ccc(OC)nc2)cc1 | inconclusive: 2.82 µM [cytotoxic, full curve, poor fit] |  |
| CC(C)CC(=O)c1c(O)cc2c(c1O)C(CC(C)C)C1=C(O2)C(C)(C)C(=O)C(C)(C)C1=O (configuration not stated) | inconclusive: 13 µM [cytotoxic, single point] |  |
| CC(C)c1ccc(N2C(=O)N[C@@H]3CCN(C(=O)c4ccc(C(C)(C)C)cc4)[C@@H]3C2=O)cc1 | inconclusive: 35.5 µM [cytotoxic, single point] |  |
